Like-named read-outs stand apart in the source and are kept apart here.

Test in all cases: cell-based
For assay [1], the target named is T1, CAT1 (cationic amino acid transporter 1, CAT1/SLC7A1) (Homo sapiens, UniProt P30825).
T1 construct: full-length human transporter stably transfected in HEK cells (HEK-CAT1); net uptake against HEK-VC vector control cells
Further details: species or system HEK-CAT1 (HEK293 stably transfected); Inhibition of net CAT1-mediated [3H]-ADMA (1 uM) uptake, 2.5 min, scintillation counting, vector control subtracted. The conditions noted are these: HEK293, ADMA 1 uM as substrate; for inhibition at 20 µM: read-out: % Inhibition of ADMA uptake at 20 µM; for inhibition at 200 µM: read-out: % Inhibition of ADMA uptake at 200 µM. On the procedure:
(§1) Uptake and inhibition assays using HEK-CAT1 and HEK-VC cells and L-arginine, L-homoarginine, and ADMA as substrates were performed using the protocol described (Strobel et al. [2012]; Chafai et al. [2017]). Briefly, after incubation, the supernatant was replaced with transport buffer containing [^3H]- L-arginine for 5 min and 2.5 min for medium containing [^3H]-L-homoarginine or [^3H]-ADMA with or without the test compound. The reference drugs were screened at concentrations of 20 µM (Figs. 1A, 2A, and 3A) and 200 µM (Figs. 1B, 2B, and 3B). […] The net uptake was determined by subtracting the total amount taken up by control cells from the amount taken up by CAT1-expressing cells, which was expressed as a percentage of the amount taken up by the control. To determine the inhibitory effects of the drugs on CAT1-mediated transport of L-arginine, L-homoarginine, or ADMA, the control was measured in the absence of the potential inhibitor. The value for the percent inhibition was calculated as: Inhibition (%) = 100 – (V/V0 ^* 100), where V and V0 are the net uptake rates (uptake into HEK-CAT1 cells—uptake into HEK-VC cells) with and without test drugs, respectively. […] Each bar represents the effect of one compound on CAT1-mediated ADMA (1 μM) uptake as percent inhibition. Data were obtained from at least two independent experiments performed in triplicate (n = 6–9) and each test data from the independent experiment were normalized to the respective control data to get the value of percent inhibition. Negative inhibition values indicate stimulated CAT1-mediated uptake. Data were analyzed using one-way ANOVA and Dunnett’s multiple comparison test with p < 0.05. Bars showing a statistically significant inhibition or transport stimulation are shaded in black

Assay [2] addresses T1, CAT1 (cationic amino acid transporter 1, CAT1/SLC7A1). Further details: species or system HEK-CAT1 (HEK293 stably transfected); Inhibition of net CAT1-mediated [3H]-L-arginine (100 uM) uptake, 5 min, scintillation counting, vector control subtracted. The settings on record: HEK293, L-arginine 100 uM as substrate; for inhibition at 20 µM: read-out: % Inhibition of L-arginine uptake at 20 µM; for inhibition at 200 µM: read-out: % Inhibition of L-arginine uptake at 200 µM. On the procedure: as §1, with “L-arginine (100” for “ADMA (1”

For assay [3] the target is unchanged. Further details: species or system HEK-CAT1 (HEK293 stably transfected); Inhibition of net CAT1-mediated [3H]-L-homoarginine (1 uM) uptake, 2.5 min, scintillation counting, vector control subtracted. The conditions noted are these: HEK293; L-homoarginine 1 uM as substrate; read-out: % Inhibition of L-homoarginine uptake at 20 µM. On the procedure: as §1, with “CAT1-mediated L-homoarginine” for “CAT1-mediated ADMA”, “inhibition. […]” for “inhibition. Data were obtained from at least two independent experiments performed in triplicate (n = 6–9) and each test data from the independent experiment were normalized to the respective control data to get the value of percent inhibition. Negative inhibition values indicate stimulated CAT1-mediated uptake.”, “0.05. […]” for “0.05. Bars showing a statistically significant inhibition or transport stimulation are shaded in black”

T1 sequence (P30825 whole entry): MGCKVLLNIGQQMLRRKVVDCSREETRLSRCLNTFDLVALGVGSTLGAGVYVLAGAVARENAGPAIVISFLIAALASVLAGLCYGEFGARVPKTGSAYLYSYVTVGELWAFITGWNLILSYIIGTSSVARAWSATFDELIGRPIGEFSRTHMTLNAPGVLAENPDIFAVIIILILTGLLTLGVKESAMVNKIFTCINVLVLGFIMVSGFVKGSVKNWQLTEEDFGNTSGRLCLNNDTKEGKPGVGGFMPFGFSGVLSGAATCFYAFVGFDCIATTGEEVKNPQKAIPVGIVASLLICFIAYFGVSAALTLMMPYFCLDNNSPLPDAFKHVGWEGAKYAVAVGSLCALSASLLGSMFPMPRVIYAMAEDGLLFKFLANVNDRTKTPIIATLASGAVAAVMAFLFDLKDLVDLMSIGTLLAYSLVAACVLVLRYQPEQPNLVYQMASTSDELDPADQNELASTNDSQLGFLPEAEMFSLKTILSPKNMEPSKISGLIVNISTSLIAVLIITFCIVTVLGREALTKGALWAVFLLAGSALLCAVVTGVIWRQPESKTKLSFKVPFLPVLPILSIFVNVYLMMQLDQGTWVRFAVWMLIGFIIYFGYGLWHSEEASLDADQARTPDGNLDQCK

As for `CC(C)NCC(O)COc1ccc(CC(N)=O)cc1` (centres unmarked) [Atenolol], in assay [1], the inhibition (usually the change of the read-out against control, counted positive when it falls) at 20 µM was -0.5 ± 5.9% and the inhibition at 200 µM is -8.9 ± 14.8%. Also, the inhibition at 20 µM in assay [2] was -0.8 ± 5.3%.
For `COc1ccc2cc([C@H](C)C(=O)O)ccc2c1` [Naproxen], the results for the inhibition at 20 µM in assay [1], in assay [3] and in assay [2] were 6.7 ± 4%, -3.1 ± 6.6% and -3.1 ± 6.6%, respectively. The inhibition at 200 µM came to 11.5 ± 2.7% in assay [1] and 20.3 ± 1.7% in assay [2].
Take `Nc1ccc(S(N)(=O)=O)cc1` [Sulfanilamide]: in assay [1], the inhibition at 20 µM was -13.7 ± 1.4% and the inhibition at 200 µM was -48.1 ± 12%. In addition, in assay [2], the inhibition at 20 µM stood at 20.1 ± 0.9% and the inhibition at 200 µM is 1.8 ± 2.7%.
For `NS(=O)(=O)c1cc(C(=O)O)c(NCc2ccco2)cc1Cl` [Furosemide], in that order: 4.8 ± 9.4%, -14.4 ± 4%, 17.5 ± 8.8% and 12.9 ± 2.6%.
Turning to `Cc1cc(NS(=O)(=O)c2ccc(N)cc2)no1` [Sulfamethoxazole], in assay [1], the inhibition at 20 µM worked out at 36 ± 3.5% and the inhibition at 200 µM is -17.1 ± 2.8%. For the same compound, in assay [2], the inhibition at 20 µM was -8.6 ± 3.6% and the inhibition at 200 µM turned out to be 0.9 ± 0.8%.
